# Results: the supplement of paper PMC8728848
# The other results are listed elsewhere or left out.
# B1: PX9961V-pdi-562-26-562 (Parabacteroides distasonis) (protein)
# chain: EIFSEITTDNYYQNSNNIYAALVNNYAKAFSTGWSDARYFLQEVTADQLMIPTRGKHGYNGGEYVRLHEHKWTVEENFVYNGWAAPFQGIALCNNTLSDFENLDFSTFKLTEETKNEYIAELRALRVWNYMFLIDFFRHVPIVTDIEEVKAQSTPLEVFNFMESELLAILPDLPKNRGVSRFDQAGVASILVRLYLNAEKWIGISKYDECEQMAQAILDGKYGEYSIDPDYRGPFRSGINGYRSKENIMEFAIKKNYFEASWLYNMWMHYQDRYSLDNDWQGWNGGNLAPSRDLYGNLYQDKLGMPFEKFPDGDIRKKAFRVISNDGDYEGFFLMGTQYKFDYEKGYGFTDEVITGTEEYNGKPLVYVDQVGRFSEGETGLAKGSHVIYGEENTGYRLIKFPWLPQSKDLFQMNSIPEIRLAEIYYSLAECKYRSGDKIGAARLLDVVRKRYYKAEDWSKFSYESNISKLTDDEFVDELGREFIGERHRRIDLIRWNRFSEGAWWDKTPDATNQDVFPIPYRALNANPLLKQTTAGF
# Tests used:
# Assay in all cases: glycan array binding signal (z-score within array); higher = stronger binding
# Conditions in all cases: glycan notation: IUPAC condensed, linker removed
# [1] = target: Gal(b1-4)GlcNAc(b1-3)Gal(b1-4)GlcNAc(b1-2)[Gal(b1-4)GlcNAc(b1-3)Gal(b1-4)GlcNAc(b1-6)]Man(a1-6)[Gal(b1-4)GlcNAc(b1-3)Gal(b1-4)GlcNAc(b1-2)Man(a1-3)]Man(b1-4)GlcNAc(b1-4)GlcNAc
# In short: (§1)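 The binding signal is a Z-score computed within each array. Data were drawn from 3228 arrays in the Consortium for Functional Glycomics database, restricted to those with a known protein sequence. Scores were averaged over arrays of the same protein sequence at different concentrations or buffers, and over linkers, and negative values can be taken as non-binding.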
# [2] = target: Gal(b1-4)GlcNAc(b1-3)Gal(b1-4)GlcNAc(b1-2)[Gal(b1-4)GlcNAc(b1-3)Gal(b1-4)GlcNAc(b1-6)]Man(a1-6)[Gal(b1-4)GlcNAc(b1-3)Gal(b1-4)GlcNAc(b1-2)Man(a1-3)]Man(b1-4)GlcNAc(b1-4)[Fuc(a1-6)]GlcNAc
# In short: as §1
# [3] = target: Gal(b1-4)GlcNAc(b1-3)Gal(b1-4)GlcNAc(b1-3)Gal(b1-4)GlcNAc
# In short: as §1
# [4] = target: Gal(b1-4)GlcNAc(b1-3)Gal(b1-4)GlcNAc(b1-3)Gal(b1-4)GlcNAc(b1-2)Man(a1-3)[Gal(b1-4)GlcNAc(b1-3)Gal(b1-4)GlcNAc(b1-3)Gal(b1-4)GlcNAc(b1-2)Man(a1-6)]Man(b1-4)GlcNAc(b1-4)GlcNAc
# In short: as §1
# [5] = target: Gal(b1-4)GlcNAc(b1-3)Gal(b1-4)GlcNAc(b1-3)Gal(b1-4)GlcNAc(b1-2)Man(a1-3)[Gal(b1-4)GlcNAc(b1-3)Gal(b1-4)GlcNAc(b1-3)Gal(b1-4)GlcNAc(b1-2)Man(a1-6)]Man(b1-4)GlcNAc(b1-4)[Fuc(a1-6)]GlcNAc
# In short: as §1
# [6] = target: Gal(b1-4)GlcNAc(b1-3)Gal(b1-4)GlcNAc(b1-3)Gal(b1-4)GlcNAc(b1-2)[Gal(b1-4)GlcNAc(b1-3)Gal(b1-4)GlcNAc(b1-3)Gal(b1-4)GlcNAc(b1-6)]Man(a1-6)[Gal(b1-4)GlcNAc(b1-3)Gal(b1-4)GlcNAc(b1-3)Gal(b1-4)GlcNAc(b1-2)Man(a1-3)]Man(b1-4)GlcNAc(b1-4)[Fuc(a1-6)]GlcNAc
# In short: as §1
# [7] = target: Gal(b1-4)GlcNAc(b1-3)Gal(b1-4)GlcNAc(b1-3)Gal(b1-4)GlcNAc(b1-3)Gal(b1-4)GlcNAc(b1-2)Man(a1-3)[Gal(b1-4)GlcNAc(b1-3)Gal(b1-4)GlcNAc(b1-3)Gal(b1-4)GlcNAc(b1-3)Gal(b1-4)GlcNAc(b1-2)Man(a1-6)]Man(b1-4)GlcNAc(b1-4)GlcNAc
# In short: as §1
# [8] = target: Gal(b1-4)GlcNAc(b1-3)Gal(b1-4)GlcNAc(b1-3)Gal(b1-4)GlcNAc(b1-3)Gal(b1-4)GlcNAc(b1-2)Man(a1-3)[Gal(b1-4)GlcNAc(b1-3)Gal(b1-4)GlcNAc(b1-3)Gal(b1-4)GlcNAc(b1-3)Gal(b1-4)GlcNAc(b1-2)Man(a1-6)]Man(b1-4)GlcNAc(b1-4)[Fuc(a1-6)]GlcNAc
# In short: as §1
# [9] = target: Gal(b1-4)GlcNAc(b1-3)Gal(b1-4)GlcNAc(b1-3)Gal(b1-4)GlcNAc(b1-3)Gal(b1-4)GlcNAc(b1-2)[Gal(b1-4)GlcNAc(b1-3)Gal(b1-4)GlcNAc(b1-3)Gal(b1-4)GlcNAc(b1-3)Gal(b1-4)GlcNAc(b1-6)]Man(a1-6)[Gal(b1-4)GlcNAc(b1-3)Gal(b1-4)GlcNAc(b1-3)Gal(b1-4)GlcNAc(b1-3)Gal(b1-4)GlcNAc(b1-2)Man(a1-3)]Man(b1-4)GlcNAc(b1-4)[Fuc(a1-6)]GlcNAc
# In short: as §1
# [10] = target: Gal(b1-4)GlcNAc(b1-3)Gal(b1-4)GlcNAc(b1-3)Gal(b1-4)GlcNAc(b1-3)Gal(b1-4)GlcNAc(b1-3)Gal(b1-4)GlcNAc(b1-2)Man(a1-3)[Gal(b1-4)GlcNAc(b1-3)Gal(b1-4)GlcNAc(b1-3)Gal(b1-4)GlcNAc(b1-3)Gal(b1-4)GlcNAc(b1-3)Gal(b1-4)GlcNAc(b1-2)Man(a1-6)]Man(b1-4)GlcNAc(b1-4)GlcNAc
# In short: as §1
# [11] = target: Gal(b1-4)GlcNAc(b1-3)Gal(b1-4)GlcNAc(b1-3)Gal(b1-4)GlcNAc(b1-3)Gal(b1-4)GlcNAc(b1-3)Gal(b1-4)GlcNAc(b1-2)Man(a1-3)[Gal(b1-4)GlcNAc(b1-3)Gal(b1-4)GlcNAc(b1-3)Gal(b1-4)GlcNAc(b1-3)Gal(b1-4)GlcNAc(b1-3)Gal(b1-4)GlcNAc(b1-2)Man(a1-6)]Man(b1-4)GlcNAc(b1-4)[Fuc(a1-6)]GlcNAc
# In short: as §1
# [12] = target: Gal(b1-4)GlcNAc(b1-3)Gal(b1-4)GlcNAc(b1-3)Gal(b1-4)GlcNAc(b1-3)Gal(b1-4)GlcNAc(b1-3)Gal(b1-4)GlcNAc(b1-2)[Gal(b1-4)GlcNAc(b1-3)Gal(b1-4)GlcNAc(b1-3)Gal(b1-4)GlcNAc(b1-3)Gal(b1-4)GlcNAc(b1-3)Gal(b1-4)GlcNAc(b1-6)]Man(a1-6)[Gal(b1-4)GlcNAc(b1-3)Gal(b1-4)GlcNAc(b1-3)Gal(b1-4)GlcNAc(b1-3)Gal(b1-4)GlcNAc(b1-3)Gal(b1-4)GlcNAc(b1-2)Man(a1-3)]Man(b1-4)GlcNAc(b1-4)[Fuc(a1-6)]GlcNAc
# In short: as §1
# [13] = target: Gal(b1-4)GlcNAc(b1-3)Gal(b1-4)GlcNAc(b1-3)Gal(b1-4)GlcNAc(b1-3)Gal(b1-4)GlcNAc(b1-3)Gal(b1-4)GlcNAc(b1-3)Gal(b1-4)GlcNAc(b1-2)Man(a1-3)[Gal(b1-4)GlcNAc(b1-3)Gal(b1-4)GlcNAc(b1-3)Gal(b1-4)GlcNAc(b1-3)Gal(b1-4)GlcNAc(b1-3)Gal(b1-4)GlcNAc(b1-3)Gal(b1-4)GlcNAc(b1-2)Man(a1-6)]Man(b1-4)GlcNAc(b1-4)GlcNAc
# In short: as §1
# [14] = target: Gal(b1-4)GlcNAc(b1-3)Gal(b1-4)GlcNAc(b1-3)GalNAc
# In short: as §1
# [15] = target: Gal(b1-4)GlcNAc(b1-3)Gal(b1-4)GlcNAc(b1-3)[Gal(b1-4)GlcNAc(b1-3)Gal(b1-4)GlcNAc(b1-6)]GalNAc
# In short: as §1
# [16] = target: Gal(b1-4)GlcNAc(b1-3)Gal(b1-4)GlcNAc(b1-6)[Gal(b1-3)]GalNAc
# In short: as §1
# [17] = target: Gal(b1-4)GlcNAc(b1-3)Gal(b1-4)[Fuc(a1-3)]GlcNAc(b1-3)Gal(b1-4)[Fuc(a1-3)]GlcNAc
# In short: as §1
# [18] = target: Gal(b1-4)GlcNAc(b1-3)GalNAc
# In short: as §1
# [19] = target: Gal(b1-4)GlcNAc(b1-3)[Fuc(a1-3)GlcNAc(b1-6)]Gal(b1-4)Glc
# In short: as §1
# [20] = target: Gal(b1-4)GlcNAc(b1-3)[Gal(b1-4)GlcNAc(b1-6)]Gal(b1-4)GlcNAc
# In short: as §1
# [21] = target: Gal(b1-4)GlcNAc(b1-3)[GlcNAc(b1-6)]Gal(b1-4)GlcNAc
# In short: as §1
# [22] = target: Gal(b1-4)GlcNAc(b1-6)Gal(b1-4)GlcNAc
# In short: as §1
# [23] = target: Gal(b1-4)GlcNAc(b1-6)GalNAc
# In short: as §1
# [24] = target: Gal(b1-4)GlcNAc(b1-6)[Gal(b1-3)]GalNAc
# In short: as §1
# [25] = target: Gal(b1-4)GlcNAc(b1-6)[Gal(b1-4)GlcNAc(b1-3)]GalNAc
# In short: as §1
# Gal(b1-4)GlcNAc6P = target: Gal(b1-4)GlcNAc6P
# In short: as §1
# Gal(b1-6)Gal = target: Gal(b1-6)Gal
# In short: as §1
# Gal3S(b1-3)GalNAc = target: Gal3S(b1-3)GalNAc
# In short: as §1
# Gal3S(b1-3)GlcNAc = target: Gal3S(b1-3)GlcNAc
# In short: as §1
# [26] = target: Gal3S(b1-3)[Fuc(a1-4)]GlcNAc
# In short: as §1
# Gal3S(b1-4)Glc = target: Gal3S(b1-4)Glc
# In short: as §1
# Gal3S(b1-4)Glc6S = target: Gal3S(b1-4)Glc6S
# In short: as §1
# Gal3S(b1-4)GlcNAc = target: Gal3S(b1-4)GlcNAc
# In short: as §1
# [27] = target: Gal3S(b1-4)[Fuc(a1-3)]Glc6S
# In short: as §1
# [28] = target: Gal3S(b1-4)[Fuc(a1-3)]GlcNAc
# In short: as §1
# [29] = target: Gal3S(b1-4)[Fuc(a1-3)]GlcNAc6S
# In short: as §1
# Gal3S4S(b1-4)GlcNAc = target: Gal3S4S(b1-4)GlcNAc
# In short: as §1
binder,measurement,setting,value
B1,glycan array binding signal (z-score),[1],4.58
same,glycan array binding signal (z-score),[2],0.804
same,glycan array binding signal (z-score),[3],0.182
same,glycan array binding signal (z-score),[4],4.36
same,glycan array binding signal (z-score),[5],3.17
same,glycan array binding signal (z-score),[6],2.98
same,glycan array binding signal (z-score),[7],1.39
same,glycan array binding signal (z-score),[8],2.85
same,glycan array binding signal (z-score),[9],1.56
same,glycan array binding signal (z-score),[10],1.16
same,glycan array binding signal (z-score),[11],0.336
same,glycan array binding signal (z-score),[12],1.6
same,glycan array binding signal (z-score),[13],1.64
same,glycan array binding signal (z-score),[14],2.34
same,glycan array binding signal (z-score),[15],0.667
same,glycan array binding signal (z-score),[16],0.408
same,glycan array binding signal (z-score),[17],-0.412
same,glycan array binding signal (z-score),[18],-0.478
same,glycan array binding signal (z-score),[19],-0.429
same,glycan array binding signal (z-score),[20],0.575
same,glycan array binding signal (z-score),[21],-0.498
same,glycan array binding signal (z-score),[22],-0.386
same,glycan array binding signal (z-score),[23],-0.247
same,glycan array binding signal (z-score),[24],0.458
same,glycan array binding signal (z-score),[25],-0.135
same,glycan array binding signal (z-score),Gal(b1-4)GlcNAc6P,-0.526
same,glycan array binding signal (z-score),Gal(b1-6)Gal,0.78
same,glycan array binding signal (z-score),Gal3S(b1-3)GalNAc,-0.29
same,glycan array binding signal (z-score),Gal3S(b1-3)GlcNAc,-0.799
same,glycan array binding signal (z-score),[26],-0.552
same,glycan array binding signal (z-score),Gal3S(b1-4)Glc,-0.152
same,glycan array binding signal (z-score),Gal3S(b1-4)Glc6S,-0.546
same,glycan array binding signal (z-score),Gal3S(b1-4)GlcNAc,-0.447
same,glycan array binding signal (z-score),[27],1.67
same,glycan array binding signal (z-score),[28],-0.385
same,glycan array binding signal (z-score),[29],-0.111
same,glycan array binding signal (z-score),Gal3S4S(b1-4)GlcNAc,0.293
